Assay results reported in the supplement of paper PMC10369915.
The list shows a part of the results. Cut-off read from the data, not from the text of the source: active = 3.2 or more and inactive = the rest. Most of these values are background signal.

What was measured:
Experiment in all cases: enrichment score (SH2-bound / input frequency) (ratio); bacterial display of known human phosphotyrosine sites (pTyr-Var adds point mutants) read by sequencing; higher = stronger binding; tyrosines were phosphorylated by kinases first
Conditions in all cases: peptide library: pTyr-Var
SHP2 C-SH2 domain E139D = target: SHP2 C-SH2 domain E139D
[1] = target: SHP2 C-SH2 domain wild-type
SHP2 N-SH2 domain L43F = target: SHP2 N-SH2 domain L43F
SHP2 N-SH2 domain T42A = target: SHP2 N-SH2 domain T42A
SHP2 N-SH2 domain T52S = target: SHP2 N-SH2 domain T52S
[2] = target: SHP2 N-SH2 domain wild-type

Measured: enrichment score
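Note: displayed peptides selected on beads carrying the immobilized SH2 domain, with library peptides lacking any tyrosine serving as negative controls.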

FASTGYGIAIQ [GRIN2B_Y762]
inactive: SHP2 C-SH2 domain E139D 1.02 | [1] 0.953 | SHP2 N-SH2 domain L43F 0.986 | SHP2 N-SH2 domain T42A 0.895 | SHP2 N-SH2 domain T52S 0.931 | [2] 1.03

PDGVEYLKNDP [GRIN3A_Y831]
inactive: SHP2 C-SH2 domain E139D 0.687 | [1] 0.83 | SHP2 N-SH2 domain L43F 0.964 | SHP2 N-SH2 domain T42A 0.731 | SHP2 N-SH2 domain T52S 0.699 | [2] 0.489

RSRQIYDAYIM [GRK3_Y109]
inactive: SHP2 C-SH2 domain E139D 0.992 | [1] 0.801 | SHP2 N-SH2 domain L43F 1.16 | SHP2 N-SH2 domain T42A 0.907 | SHP2 N-SH2 domain T52S 1.12 | [2] 1.1

KSRQIYDAFIM [GRK3_Y109_R104K_YF]
inactive: SHP2 C-SH2 domain E139D 1.02 | [1] 0.778 | SHP2 N-SH2 domain L43F 1 | SHP2 N-SH2 domain T42A 0.998 | SHP2 N-SH2 domain T52S 1.15 | [2] 1

RSRQIYDAFIM [GRK3_Y109_YF]
inactive: SHP2 C-SH2 domain E139D 0.754 | [1] 0.745 | SHP2 N-SH2 domain L43F 0.776 | SHP2 N-SH2 domain T42A 0.622 | SHP2 N-SH2 domain T52S 0.522 | [2] 0.725

ILCTVYAFKTR [GRM3_Y754]
inactive: SHP2 C-SH2 domain E139D 1.15 | [1] 1.07 | SHP2 N-SH2 domain L43F 1.17 | SHP2 N-SH2 domain T42A 1.02 | SHP2 N-SH2 domain T52S 1.35 | [2] 1.16

LTSVKYLLSAT [GSDMC_Y26_P23S]
inactive: SHP2 C-SH2 domain E139D 1.65 | [1] 1.16 | SHP2 N-SH2 domain L43F 1.32 | SHP2 N-SH2 domain T42A 1.52 | SHP2 N-SH2 domain T52S 1.52 | [2] 1.31

CLNAIYQNNLT [GSR_Y158_R153C]
inactive: SHP2 C-SH2 domain E139D 1.27 | [1] 1.12 | SHP2 N-SH2 domain L43F 0.999 | SHP2 N-SH2 domain T42A 0.936 | SHP2 N-SH2 domain T52S 0.936 | [2] 1.14

YFRDGYMPRQY [GSS_Y270]
inactive: SHP2 C-SH2 domain E139D 0.606 | [1] 0.537 | SHP2 N-SH2 domain L43F 0.521 | SHP2 N-SH2 domain T42A 0.563 | SHP2 N-SH2 domain T52S 0.808 | [2] 0.79

YFWDGYMPRQY [GSS_Y270_R267W]
inactive: SHP2 C-SH2 domain E139D 0.988 | [1] 0.973 | SHP2 N-SH2 domain L43F 0.874 | SHP2 N-SH2 domain T42A 0.918 | SHP2 N-SH2 domain T52S 1.02 | [2] 0.966

RAILDYIASKF [GSTA3_Y74_N73D_YF]
inactive: SHP2 C-SH2 domain E139D 1.5 | [1] 1.31 | SHP2 N-SH2 domain L43F 1.31 | SHP2 N-SH2 domain T42A 1.32 | SHP2 N-SH2 domain T52S 1.23 | [2] 1.44

PEVCDYGLGGG [GSTO1_Y239_A236V]
inactive: SHP2 C-SH2 domain E139D 0.524 | [1] 0.884 | SHP2 N-SH2 domain L43F 0.93 | SHP2 N-SH2 domain T42A 0.673 | SHP2 N-SH2 domain T52S 0.251 | [2] 0.657

FISLIYTNFEV [GSTP1_Y109_A114V_YF]
inactive: SHP2 C-SH2 domain E139D 2.06 | [1] 2.35 | SHP2 N-SH2 domain L43F 1.67 | SHP2 N-SH2 domain T42A 1.86 | SHP2 N-SH2 domain T52S 2.28 | [2] 2.79

RKETFYTLSCR [GUCY2C_Y681]
inactive: SHP2 C-SH2 domain E139D 0.771 | [1] 1.73 | SHP2 N-SH2 domain L43F 1.05 | SHP2 N-SH2 domain T42A 0.521 | SHP2 N-SH2 domain T52S 0.526 | [2] 1.04

VKPHRYRPGTV [H3-5_Y41]
inactive: SHP2 C-SH2 domain E139D 0.37 | [1] 0.276 | SHP2 N-SH2 domain L43F 0.317 | SHP2 N-SH2 domain T42A 0.344 | SHP2 N-SH2 domain T52S 0.289 | [2] 0.39

ALTDNYMFVVI [HAGH_Y61_L64V_YF]
inactive: SHP2 C-SH2 domain E139D 0.673 | [1] 0.805 | SHP2 N-SH2 domain L43F 0.757 | SHP2 N-SH2 domain T42A 0.868 | SHP2 N-SH2 domain T52S 0.634 | [2] 0.925

ALTDNYMFLVI [HAGH_Y61_YF]
inactive: SHP2 C-SH2 domain E139D 0.721 | [1] 1.01 | SHP2 N-SH2 domain L43F 0.648 | SHP2 N-SH2 domain T42A 0.88 | SHP2 N-SH2 domain T52S 0.609 | [2] 1.16

SRWKLYPRMLR [HAO1_Y50]
inactive: SHP2 C-SH2 domain E139D 0.234 | [1] 0.259 | SHP2 N-SH2 domain L43F 0.246 | SHP2 N-SH2 domain T42A 0.312 | SHP2 N-SH2 domain T52S 0.175 | [2] 0.319

SSWKLYPRMLR [HAO1_Y50_R46S]
inactive: SHP2 C-SH2 domain E139D 0.699 | [1] 0.47 | SHP2 N-SH2 domain L43F 0.471 | SHP2 N-SH2 domain T42A 0.629 | SHP2 N-SH2 domain T52S 0.576 | [2] 0.624

DLWEKYMDCGG [HAP1_Y440_R437W]
inactive: SHP2 C-SH2 domain E139D 1.38 | [1] 2.24 | SHP2 N-SH2 domain L43F 1.64 | SHP2 N-SH2 domain T42A 1.59 | SHP2 N-SH2 domain T52S 1.23 | [2] 2.14

VPFARYLAMNK [HARS1_Y138]
inactive: SHP2 C-SH2 domain E139D 0.596 | [1] 0.668 | SHP2 N-SH2 domain L43F 0.753 | SHP2 N-SH2 domain T42A 0.641 | SHP2 N-SH2 domain T52S 0.71 | [2] 0.653

AAGGRYDGLVG [HARS1_Y363]
inactive: SHP2 C-SH2 domain E139D 0.6 | [1] 1.21 | SHP2 N-SH2 domain L43F 0.734 | SHP2 N-SH2 domain T42A 0.69 | SHP2 N-SH2 domain T52S 0.7 | [2] 0.726

AAGGRYFGLVG [HARS1_Y363_D364Y_YF]
inactive: SHP2 C-SH2 domain E139D 0.96 | [1] 1.01 | SHP2 N-SH2 domain L43F 0.958 | SHP2 N-SH2 domain T42A 0.776 | SHP2 N-SH2 domain T52S 0.918 | [2] 0.931

VLTSKYLGGGG [HBA1_Y141_R142L]
inactive: SHP2 C-SH2 domain E139D 1.16 | [1] 0.658 | SHP2 N-SH2 domain L43F 0.684 | SHP2 N-SH2 domain T42A 0.612 | SHP2 N-SH2 domain T52S 0.854 | [2] 0.638

VLTPKYRGGGG [HBA1_Y141_S139P]
inactive: SHP2 C-SH2 domain E139D 0.395 | [1] 0.599 | SHP2 N-SH2 domain L43F 0.537 | SHP2 N-SH2 domain T42A 0.488 | SHP2 N-SH2 domain T52S 0.422 | [2] 0.629

DHAGEYGAEAL [HBA1_Y25_A20D]
inactive: SHP2 C-SH2 domain E139D 0.403 | [1] 0.531 | SHP2 N-SH2 domain L43F 0.516 | SHP2 N-SH2 domain T42A 0.453 | SHP2 N-SH2 domain T52S 0.379 | [2] 0.734

AHPGEYGAEAL [HBA1_Y25_A22P]
inactive: SHP2 C-SH2 domain E139D 0.545 | [1] 0.615 | SHP2 N-SH2 domain L43F 0.447 | SHP2 N-SH2 domain T42A 0.466 | SHP2 N-SH2 domain T52S 0.436 | [2] 0.483

AHAGEYGVEAL [HBA1_Y25_A27V]
inactive: SHP2 C-SH2 domain E139D 0.533 | [1] 0.558 | SHP2 N-SH2 domain L43F 0.536 | SHP2 N-SH2 domain T42A 0.548 | SHP2 N-SH2 domain T52S 0.627 | [2] 0.792

AHAGEYGADAL [HBA1_Y25_E28D]
inactive: SHP2 C-SH2 domain E139D 0.515 | [1] 0.439 | SHP2 N-SH2 domain L43F 0.476 | SHP2 N-SH2 domain T42A 0.426 | SHP2 N-SH2 domain T52S 0.416 | [2] 0.59

ARAGEYGAEAL [HBA1_Y25_H21R]
inactive: SHP2 C-SH2 domain E139D 0.646 | [1] 0.572 | SHP2 N-SH2 domain L43F 0.568 | SHP2 N-SH2 domain T42A 0.495 | SHP2 N-SH2 domain T52S 0.474 | [2] 0.768

AHAGEHGAEAL [HBA1_Y25_Y25H]
inactive: SHP2 C-SH2 domain E139D 0.534 | [1] 0.456 | SHP2 N-SH2 domain L43F 0.423 | SHP2 N-SH2 domain T42A 0.492 | SHP2 N-SH2 domain T52S 0.562 | [2] 0.449

PTTKTYLPHFD [HBA1_Y43_F44L]
inactive: SHP2 C-SH2 domain E139D 0.88 | [1] 0.875 | SHP2 N-SH2 domain L43F 0.866 | SHP2 N-SH2 domain T42A 0.673 | SHP2 N-SH2 domain T52S 0.816 | [2] 1.01

PTTKTYFRHFD [HBA1_Y43_P45R]
inactive: SHP2 C-SH2 domain E139D 0.759 | [1] 0.569 | SHP2 N-SH2 domain L43F 0.74 | SHP2 N-SH2 domain T42A 0.623 | SHP2 N-SH2 domain T52S 0.517 | [2] 0.82

PTTKSYFPHFD [HBA1_Y43_T42S]
inactive: SHP2 C-SH2 domain E139D 1.06 | [1] 0.839 | SHP2 N-SH2 domain L43F 0.949 | SHP2 N-SH2 domain T42A 1.01 | SHP2 N-SH2 domain T52S 1.1 | [2] 0.863

PVQAAYQKVVA [HBB_Y131]
inactive: SHP2 C-SH2 domain E139D 0.762 | [1] 0.626 | SHP2 N-SH2 domain L43F 0.851 | SHP2 N-SH2 domain T42A 0.622 | SHP2 N-SH2 domain T52S 0.697 | [2] 0.835

PVQDAYQKVVA [HBB_Y131_A129D]
inactive: SHP2 C-SH2 domain E139D 0.653 | [1] 0.641 | SHP2 N-SH2 domain L43F 0.574 | SHP2 N-SH2 domain T42A 0.842 | SHP2 N-SH2 domain T52S 0.583 | [2] 0.711

PVQAAYKKVVA [HBB_Y131_Q132K]
inactive: SHP2 C-SH2 domain E139D 0.515 | [1] 0.496 | SHP2 N-SH2 domain L43F 0.482 | SHP2 N-SH2 domain T42A 0.464 | SHP2 N-SH2 domain T52S 0.715 | [2] 0.667
